# Over roughly 33,000 sequences, “E-score (-0.5 to 0.5)” has its median near -0.04; the highest 2% begin near 0.36. The list shows a part of the results.
# Target: T1, Hmlalpha2 (UniProt P0CY09)
# T1 sequence: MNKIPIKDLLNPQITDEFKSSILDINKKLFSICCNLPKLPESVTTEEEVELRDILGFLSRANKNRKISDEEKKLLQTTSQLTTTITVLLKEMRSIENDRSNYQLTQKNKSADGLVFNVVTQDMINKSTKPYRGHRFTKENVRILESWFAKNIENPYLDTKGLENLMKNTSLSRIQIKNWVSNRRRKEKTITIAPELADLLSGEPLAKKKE
# Assay: PBM E-score (8-mer binding enrichment) (E-score (-0.5 to 0.5)); higher = stronger / more preferred TF binding; most listed sequences are background and not binding sites
# Conditions: protein concentration: 200 nM; construct: GST-full length
# Procedure, shortened: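 Bound GST-tagged yeast transcription factors, applied at about 100-200 nM to double-stranded universal all-10-mer Agilent arrays, were detected with fluorescent anti-GST. Scans were normalised with masliner. A modified Wilcoxon-Mann-Whitney statistic, the E-score, was assigned to each ungapped eight-base word pooled with its reverse complement by the Universal PBM Analysis Suite.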
row,Sequence,PBM E-score
1,GCGATCGC,0.0724
2,CTCGTGTA,0.434
3,AGAGCTCA,-0.235
4,ACCTCATA,-0.00874
5,AGTGCAAT,0.00712
6,CCTCGCGC,-0.101
7,CGATTTGC,-0.158
8,CCTAGACA,-0.192
9,CTCATAAA,0.0237
10,ATACCTGA,0.0295
11,AGGCCCCG,-0.29
12,ATCTATGA,-0.101
13,ATCTAGAG,-0.233
14,CAGGTGAC,0.0302
15,CGGTCCTC,-0.2
16,CGAAACTA,-0.0366
17,GGTCATGA,-0.00439
18,CTTGCGTA,0.286
19,AGACGCGA,0.0871
20,ACATCCCG,0.151
21,ACACGCCG,0.274
22,AAGTACTG,0.0391
23,GTGCCCGA,0.0138
24,AAACACAA,0.322
25,AGCAAGAC,0.0534

row,Sequence,PBM E-score
1,AAAAGTAG,0.0501
2,AACGGGTA,0.16
3,CGGAGGAC,-0.134
4,AGAGTGAG,-0.0848
5,CACCGACA,-0.181
6,ACTTGTCA,0.124
7,ATGGGAAG,-0.248
8,CGTCCAAA,-0.0415
9,AGAATCTA,0.165
10,AACTTGTG,0.128
11,ATTTTAGG,0.0606
12,AAACGATA,0.137
13,ACGTTCCC,-0.216
14,ATTAATTG,0.167
15,CACACCTC,-0.16
16,CTGGACAG,-0.261
17,CCAATAGC,-0.153
18,ACAGCATC,0.0898
19,AATGAGGA,-0.103
20,ATAGCGTA,0.189
21,CTTGCAAG,0.0532
22,CTGACGAC,0.0973
23,TACCCTGA,-0.104
24,ATATGTTA,0.384
25,ATTGTAAC,0.221

row,Sequence,PBM E-score
1,GCAGGTCC,-0.18
2,CCAGGACG,0.0263
3,ACATGACG,0.379
4,CCACGAAC,-0.0118
5,CACCACTA,-0.0439
6,GTAGATAC,0.167
7,CGCAGTGA,-0.0678
8,CAGGACCC,-0.282
9,TCAAAGGA,-0.126
10,ACCACAGT,0.0716
11,CGCAATGC,0.108
12,ATGTTATG,0.425
13,GAATCTAC,0.193
14,ACCGTTCT,-0.122
15,CTTAGTTC,0.0399
16,AAGACGGC,-0.258
17,GAGTGCAA,0.179
18,CCCCTAGG,-0.399
19,CGAGAACC,0.0638
20,GACAGTAC,0.0466
21,GAGAGCAC,-0.213
22,AAGCTGAG,-0.0274
23,CCAGACTC,-0.182
24,GTATGGTA,0.187
25,TATAGTCA,0.0292

row,Sequence,PBM E-score
1,CTAAGAGA,-0.0638
2,ACTAAAAG,-0.0519
3,GACACGCA,0.301
4,GCTAGATA,0.0187
5,AGATCGCG,0.0722
6,GCAGAAAC,0.0971
7,AAGTTACG,0.0933
8,CGAATGAA,0.043
9,ATTTCCTG,0.0368
10,GAGACCCC,-0.227
11,GGACAGCA,-0.114
12,CTTTTGCC,-0.164
13,AGGCAAGC,-0.124
14,ATTTTTTC,0.0391
15,ATATACTG,0.0658
16,CCTGGTCG,-0.104
17,CCAAGTAG,-0.0346
18,CGTCCCTA,-0.0903
19,CTGGCTGC,-0.289
20,CATGATAC,0.225
21,CGAGATTC,-0.0746
22,GATAAAAA,0.188
23,CCCGTCGA,-0.0973
24,ACTATGGA,-0.23
25,AAAGTGTC,-0.123

row,Sequence,PBM E-score
1,AGGGGGGG,-0.414
2,AGACTTTG,0.0158
3,ACTGCTAG,-0.119
4,CCAAGGAA,-0.283
5,GATCAGTA,0.182
6,AATTTTGA,0.215
7,ACGCCGGA,-0.0852
8,ACGGAATA,-0.0004
9,CCCGTCGC,-0.136
10,AAACACCC,0.0451
11,ACGAAGAA,0.238
12,AGCCCGTA,-0.122
13,ATGAGAGG,-0.313
14,ATTCACAG,0.0944
15,AGAGCTTG,0.0618
16,GTACGATA,0.0013
17,GCCACTCC,-0.36
18,AACGTTTA,0.153
19,CGTCATAA,0.05
20,AAACATGT,0.445
21,CCAACTGA,0.0614
22,AAATCCAC,0.0936
23,GTTGCACA,0.0871
24,CAAAATTA,0.192
25,CCCCAAGG,-0.344

row,Sequence,PBM E-score
1,CTGCTTCA,-0.187
2,ATCCTTGA,-0.211
3,CGAGATGC,0.0153
4,ACCCTCAA,-0.0829
5,GGGACCCA,-0.31
6,ATATCAGG,0.00656
7,AATTTCCG,-0.101
8,ATTTCAAA,0.0279
9,AATAGCTG,0.0578
10,CACGCGCA,0.0754
11,CCTCCGCC,-0.261
12,GGTGGGAA,-0.191
13,CTATAGTA,0.0306
14,AGTAGGCG,-0.102
15,CAACTCGA,0.117
16,ACGACTGA,-0.125
17,TACTGTAA,0.137
18,CGCCATGA,-0.0864
19,ATTGTCTC,-0.0878
20,TGAAACCA,-0.0558
21,AGCCTTAT,-0.168
22,GACGGACA,-0.108
23,GGGATCAA,-0.0102
24,CGGTGGAG,-0.362
25,CTCAAGCC,-0.201

row,Sequence,PBM E-score
1,CGGCCGAA,-0.132
2,GAGAGAGC,-0.232
3,CTATCCAG,-0.15
4,AGTAGCTA,0.0477
5,GAATGCGA,-0.108
6,AGCATACA,0.213
7,GGTAGCAC,-0.229
8,GTTTCGGA,-0.0145
9,AAGTAATT,0.256
10,AGGCCGTG,0.0258
11,ATTATTTC,0.0932
12,CCTCCCAG,-0.252
13,CACAACGC,0.19
14,AATTGCAA,0.0289
15,CCCAGCGC,-0.138
16,CATGCGCC,-0.0099
17,AACAGGTT,0.11
18,CAATCAGC,-0.132
19,AGTTCATG,0.109
20,ATGACGTC,-0.0603
21,AATTGATG,0.168
22,AAGGTCTC,-0.0732
23,ATCTAAAC,-0.0363
24,GCAACGAA,0.15
25,TTCGCAAA,0.115

row,Sequence,PBM E-score
1,AACCCCTG,-0.348
2,ACTGCCAA,-0.0531
3,AGTTGATC,-0.055
4,AGGAGAAT,-0.143
5,ACGAACGA,0.206
6,AGAATATC,-0.0864
7,GTTTGTGA,0.0957
8,AGACATGG,0.21
9,AGACGTGA,0.0591
10,ATCAATGG,-0.229
11,CGTCATGC,-0.00095
12,CCGATAGG,-0.181
13,AACTGAGC,-0.299
14,AAACTTAA,0.256
15,CCCGTTCC,-0.201
16,AGTTAGGG,-0.259
17,ATTACGAC,0.229
18,GAGTCCCA,-0.266
19,AGAACACC,0.0993
20,CTACATTA,0.229
21,CACAAACA,0.239
22,ATCTAATG,-0.077
23,CCATTAGA,-0.289
24,ACACAAGA,0.291
25,AATCTTCC,-0.115

row,Sequence,PBM E-score
1,GAGATTCC,-0.218
2,AGAAGTCT,-0.0753
3,ATGTTAGG,0.165
4,CACACGCG,0.264
5,CCTTCAGA,-0.166
6,CCGGACGA,-0.0406
7,AGACCGGG,-0.272
8,CCCGGGCA,-0.285
9,CTCGAATC,-0.206
10,CATGTCCG,-0.0437
11,CTACCTCA,-0.172
12,AGCGCTAG,-0.0896
13,ACGCAAGG,0.185
14,CACCGGTC,-0.275
15,AAATCCTT,-0.0827
16,AGGGTTGA,-0.0378
17,CAGTAGGA,-0.195
18,TACCGGCA,0.0228
19,ATAACAGA,0.259

# From the supplement of paper PMC3334620
